Test results published in PubChem BioAssay AID504845 (National Center for Advancing Translational Sciences (NCATS), 2011).
Several values for one entry are separate records, joined by “and”; a condition that tells them apart may be missing. Equal entries are not always repeated. The whole screen tested about 390,000 compounds, of which about 150 (0.038%) were called active. The inconclusive results got no clear call from the source; some entries with a clear call stand among them for comparison. The call rests on the fitted dose curve; in most records, active means well fitted inhibition curve with a large enough effect; inconclusive means small, poorly fitted or top-dose-only effect; inactive means no such curve, though single readings can be large or run the other way. Potencies beside an inconclusive call are fits to weak or partial responses and may not hold up.
Further: nearly all actives have a fitted effect of over 75% in size.
On the % scale 0 is the no-effect control and ±100 the full control effect; potency means the concentration at half of the fitted maximal effect; tags describe the fitted curve by direction and shape.

The molecules below were run against Regulator of G-protein signaling 4 (Homo sapiens) (UniProt P49798) (assay: Inhibitors of Regulator of G Protein Signaling (RGS) 4: qHTS). Details: Transcreener GDP fluorescence polarization, RGS4-accelerated GTP hydrolysis; series mostly up to 114 µM; activity change, negative = inhibition: at the top concentration.
UniProt P49798, sequence (P49798 whole entry, looked up): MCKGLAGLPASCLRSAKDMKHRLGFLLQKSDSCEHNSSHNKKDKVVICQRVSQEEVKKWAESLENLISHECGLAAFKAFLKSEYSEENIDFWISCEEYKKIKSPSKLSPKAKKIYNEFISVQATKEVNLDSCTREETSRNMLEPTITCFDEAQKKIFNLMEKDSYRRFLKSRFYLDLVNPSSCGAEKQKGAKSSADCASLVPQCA
Method in brief: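 MLSMR compounds (23 nl, pin-transferred) preincubated 10 min at room temperature with a 500nM (2x) first reagent, then RGS4 at 900nM (2x) plus Transcreener GDP mix added; fluorescence polarization (620/688 nm) read before and after 90 min at 30 °C.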
For `COC(=O)C1=Nc2ccccc2/C1=C\c1c(O)n(-c2cc(OC)ccc2OC)c(=O)[nH]c1=O`, the Potency was inconclusive: 50.1 µM [inhibitor, partial curve, poor fit]. In the case of `C[C@]1(O)CCC2C3CC[C@@H]4CC(=O)CC[C@]4(C)C3CC[C@@]21C` (some centres undefined), the “activity change, negative = inhibition” value is reported as inactive: -6.3%. `CC(C)CC1C(C#N)=C(N)Oc2c1c(=O)oc1ccccc21` (centres undefined) was tested, and the Potency was inconclusive: 17.8 µM [inhibitor, partial curve, poor fit]. For `CNCCc1ccc(O)c(O)c1`, the Potency was inconclusive: 26.7 µM [inhibitor, single point]. `CC[C@H](CC[C@@H](C)C1CC[C@H]2[C@@H]3CC=C4C[C@@H](O)CC[C@]4(C)[C@H]3CC[C@]12C)C(C)C` (some centres undefined) was tested, and the Potency was inconclusive: 0.0067 µM [inhibitor, full curve, poor fit]. For `CCOC(=O)c1c(/N=C/c2c(O)n(-c3ccccc3F)c(=S)[nH]c2=O)sc2c1CCCC2`, the Potency was inconclusive: 56.2 µM [inhibitor, partial curve, poor fit]. In the case of `CC[C@@H]1/C=C/C=C/C[C@H](C)[C@@H](O)[C@](C)(O)C(=O)[C@H](C)[C@@H](O)[C@H](C)C(=O)[C@H](C)[C@@H](O)[C@H](C)/C=C/C(=O)O[C@H]2[C@@H](C)[C@@H](CC1)O[C@@]1(CC[C@@H](C)[C@@H](C[C@H](C)O)O1)[C@@H]2C`, the Potency is reported as inconclusive: 33.6 µM [inhibitor, partial curve, poor fit]. For `COC[C@H]1OC(=O)c2coc3c2[C@@]1(C)C1=C(C3=O)[C@@H]2CCC(=O)[C@@]2(C)C[C@H]1OC(C)=O`, the Potency was “inactive and inconclusive: 17.8 µM [inhibitor, partial curve, poor fit]”. In the case of `COc1cc(/C=C(/C)[N+](=O)[O-])ccc1OCc1ccccc1Cl`, the Potency is reported as inconclusive: 17.8 µM [inhibitor, full curve, poor fit]. For `COC(=O)C1=C(c2ccc(S(C)(=O)=O)cc2)C[C@@H]2CC[C@H]1N2C(=O)N1CCCCC1`, the Potency was inconclusive: 79.4 µM [inhibitor, single point]. For `O=C1CNC(c2ccccc2Cl)c2cc(Br)ccc2N1` (centres undefined), the Potency was inconclusive: 89.1 µM [inhibitor, single point]. `COc1c(/C=C2/C(=O)NC(=O)N(C)C2=O)c(CCN(C)C(=O)c2ccccc2)cc2c1OCO2` was tested, and the Potency was inconclusive: 79.4 µM [inhibitor, partial curve, poor fit]. `Cc1ccc(OP2(=O)Nc3cc(C)c(C)cc3S2)cc1` (centres undefined) was tested, and the Potency was inconclusive: 35.5 µM [inhibitor, full curve, poor fit]. For `Cc1cccc2c1=NC(=O)/C(=C/c1c(O)[nH]c(=O)[nH]c1=O)C=2`, the Potency was inconclusive: 20 µM [inhibitor, full curve, poor fit]. With `C/C=C1/C[N@@+]2(C)CC[C@]34C(=C(C=O)[C@H]1C[C@H]32)Nc1ccccc14` the Potency was inconclusive: 0.006 µM [inhibitor, full curve, poor fit]. For `CC(C)c1ccc(N2C(=O)NC(=O)/C(=C\C=C\c3ccco3)C2=O)cc1`, the Potency was inconclusive: 79.4 µM [inhibitor, partial curve, poor fit]. With `COC(=O)C(O)(c1ccc(N(C)C(=O)c2cccs2)cc1)C(F)(F)F` (centres undefined) the Potency was inconclusive: 17.8 µM [inhibitor, full curve, poor fit]. In the case of `CCC(C)n1c(O)c(/C=N/Nc2nc3c(c(=O)n(C)c(=O)n3C)n2C)c(=O)[nH]c1=S` (centres undefined), the Potency is reported as inconclusive: 11.2 µM [inhibitor, full curve, poor fit]. With `C/C1=C\[C@@H](C)C/C=C/[C@H]2[C@@H]3O[C@]3(C)[C@@H](C)[C@H]3[C@H](Cc4c[nH]c5ccccc45)NC(=O)[C@]32C(=O)/C=C/C(=O)[C@@H]1O` the Potency was inconclusive: 50.1 µM [inhibitor, partial curve, poor fit]. `CCCN1CCC[C@@H]2Cc3nc(N)ncc3C[C@H]21` was tested, and the Potency was inconclusive: 16.8 µM [inhibitor, partial curve, poor fit]. `O=[N+]([O-])/C=C/c1c(Cl)cccc1Cl` was tested, and the Potency was inconclusive: 56.2 µM [inhibitor, partial curve, poor fit]. `CCOC(=O)CSCCOc1ccc(C=C2C(=O)NC(=O)NC2=O)cc1OC` was tested, and the Potency was inconclusive: 44.7 µM [inhibitor, partial curve, poor fit]. `O=C(c1ccccc1F)c1cn(CC(=O)N2CCOCC2)c2ccccc12` was tested, and the Potency was inconclusive: 70.8 µM [inhibitor, partial curve, poor fit]. For `CC12CC[C@H]3[C@@H](CCC4(O)C[C@H](O)CCC34/C=N/NC(=O)Cc3ccccc3)C1(O)CCC2C1=CC(=O)OC1` (some centres undefined), the “activity change, negative = inhibition” value was inactive: -7.33%. In the case of `O=C1CC(=O)N(Cc2ccccc2)C(=O)N1`, the Potency is reported as inconclusive: 44.7 µM [inhibitor, partial curve, poor fit]. With `S=C1Nc2ccccc2Sc2ccccc21` the Potency was inconclusive: 70.8 µM [inhibitor, partial curve, poor fit]. For `CC[C@H](C)/C=C(C)/C=C/C1=CC2=C(Cl)C(=O)[C@@](C)(OC(C)=O)C(=O)C2=CO1`, the Potency was inconclusive: 31.6 µM [inhibitor, full curve, poor fit]. For `Cc1ccc(N2C(=O)NC(=O)/C(=C/c3cnn(-c4ccc(C)cc4)c3)C2=O)cc1`, the “activity change, negative = inhibition” value was inactive: -35.7%. For `Oc1ccccc1/C=N/NP(=S)(c1ccccc1)c1ccccc1`, the “activity change, negative = inhibition” value was inactive: -20.2%. `Cn1cccc1/C=C1/C(=O)NC(=O)N(Cc2ccccc2)C1=O` was tested, and the Potency was inconclusive: 50.1 µM [inhibitor, partial curve, poor fit]. With `COc1cc(C2c3cc4c(cc3CC3COC(=O)C32)OCO4)cc(OC)c1OC` (centres undefined) the “activity change, negative = inhibition” value was inactive: -12%. In the case of `CCCCCCCCCCCCCCCC(=O)OC[C@H](COP(=O)([O-])OCC[N+](C)(C)C)OC(C)=O`, the Potency is reported as inconclusive: 23.8 µM [inhibitor, partial curve, poor fit]. `O=C1C(Cl)=CC(=Nc2ccc(O)cc2)C=C1Cl` was tested, and the Potency was inconclusive: 35.5 µM [inhibitor, full curve, poor fit]. With `O=C1c2ccccc2CCc2ccccc21` the Potency was inconclusive: 89.1 µM [inhibitor, single point]. With `COc1ccc(N2C(=O)/C(=C/c3ccc(C)o3)C(=O)NC2=S)c(OC)c1` the Potency was inconclusive: 79.4 µM [inhibitor, partial curve, poor fit]. In the case of `COc1ccc(CN2CCCC(C(=O)c3ccccc3SC)C2)cc1O` (centres undefined), the “activity change, negative = inhibition” value is reported as inactive: 14.6%. `COc1ccc(N2C(=O)/C(=C/c3cccs3)C(=O)NC2=S)cc1` was tested, and the Potency was inconclusive: 50.1 µM [inhibitor, partial curve, poor fit]. `O=C1NC(=O)N(c2ccccc2)C(=O)/C1=C\c1ccccc1[N+](=O)[O-]` was tested, and the Potency was inconclusive: 28.2 µM [inhibitor, full curve, poor fit]. `C=CCN1CC[C@]23c4c5ccc(O)c4O[C@H]2/C(=N/NC(=O)c2ccccc2)CC[C@@]3(O)[C@H]1C5` was tested, and the Potency was inconclusive: 18.9 µM [inhibitor, single point]. `C=CCN1C(=O)NC(=O)/C(=C/c2cnc(SC)nc2)C1=O` was tested, and the Potency was inconclusive: 20 µM [inhibitor, full curve, poor fit]. For `CCOc1ccc(/C=C2/C(=O)NC(=O)N(CCc3ccc(F)cc3)C2=O)cc1`, the Potency was inconclusive: 35.5 µM [inhibitor, full curve, poor fit]. `COc1ccc(/C=C2/C(=O)NC(=S)N(C3CC3)C2=O)cc1CN1C(=O)c2ccccc2C1=O` was tested, and the Potency was inconclusive: 31.6 µM [inhibitor, full curve, poor fit]. `CN(C)c1ccc(/C=C/c2cc[n+](C)c3ccccc23)cc1` was tested, and the Potency was inconclusive: 79.4 µM [inhibitor, partial curve, poor fit]. `O=c1[nH]c2ccccc2n1CCCN1CCC(n2c(=O)[nH]c3cc(Cl)ccc32)CC1` was tested, and the Potency was inconclusive: 0.212 µM [inhibitor, full curve, poor fit]. For `CN1C(=O)C(=Cc2ccc(Sc3ccccc3)o2)C(=O)N(C)C1=S`, the Potency was inconclusive: 44.7 µM [inhibitor, partial curve, poor fit]. With `O=C1NC(=O)C(=Cc2cccs2)C(=O)N1` the Potency was inconclusive: 35.5 µM [inhibitor, full curve, poor fit]. With `COc1ccc(N/N=C/c2c(O)n(-c3cccc(C)c3)c(=O)[nH]c2=O)cc1` the Potency was inconclusive: 31.6 µM [inhibitor, full curve, poor fit]. With `COP(=S)(OC)SCn1nnc2ccccc2c1=O` the Potency was inconclusive: 50.1 µM [inhibitor, partial curve, poor fit]. In the case of `O=C1NC(=O)N(c2ccccc2)C(=O)/C1=C\C=C\c1ccccc1`, the Potency is reported as inconclusive: 28.2 µM [inhibitor, full curve, poor fit]. In the case of `O=C(O)CCn1cc(C=C2C(=O)NC(=O)NC2=O)c(-c2ccc(Br)cc2)n1`, the Potency is reported as inconclusive: 50.1 µM [inhibitor, partial curve, poor fit]. `O=c1oc2ccccc2n1CCCOc1ccccc1` was tested, and the Potency was inconclusive: 89.1 µM [inhibitor, single point]. `CCC(Oc1ccc(Cl)cc1)C(=O)OC1CC2CCC(C1)N2C` (centres undefined) was tested, and the Potency was inconclusive: 5.32 µM [inhibitor, partial curve, poor fit]. For `Cc1ccc(C(=O)NC2CC3CCCC(C2)N3Cc2ccccc2)cc1` (centres undefined), the Potency was inconclusive: 100 µM [inhibitor, single point]. For `COc1ccc(C(=O)C(C)(C)NO)cc1`, the Potency was inconclusive: 100 µM [inhibitor, single point].
